The values that follow come from article PMC5836133.

Some of the results follow. At the low end of the ranking, values are background and their order means little.

For the test, the system named is T1, GST-NbGlk1(82-244).
T1 sequence: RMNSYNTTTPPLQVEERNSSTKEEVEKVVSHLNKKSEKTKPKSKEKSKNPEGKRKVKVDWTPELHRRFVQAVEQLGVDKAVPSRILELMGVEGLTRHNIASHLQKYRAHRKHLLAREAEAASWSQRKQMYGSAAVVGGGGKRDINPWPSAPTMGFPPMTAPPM
Briefly: protein-binding microarray.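 Also: rank-based score ranging −0.5 to +0.5 with E above 0.45 taken as significant binding.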 The note with it: NbGlk1 is a Golden2-like transcription factor of Nicotiana benthamiana; high values mean tight binding; most listed sequences are background and not binding sites; double strand, one strand shown.
For ATTTGTCG, the binding signal amounted to 0.172 E-score.
For AAGGACGG the value was -0.173 E-score.
In the case of ACCGCGGG it was -0.0466 E-score.
In the case of AAGTAGTA it was 0.0158 E-score; in that of ATTGCGCA, 0.301 E-score; in that of ATAGGTAA, 0.154 E-score.
Take CACCGCCG: the binding signal is -0.114 E-score.
AACGCGAG registered a binding signal of -0.123 E-score.
With CAACAAGA, the binding signal was -0.0107 E-score.
As to AAGGAACT, the binding signal was -0.138 E-score.
Turning to AATGCACC, the binding signal was -0.114 E-score.
On to ATTTTCCC, for which the binding signal came out at 0.304 E-score.
On to AGATTCTG, for which the binding signal amounted to 0.469 E-score.
In the case of ATCCATTG it was 0.253 E-score; in that of AGTCAACG, -0.177 E-score; in that of ACCTTTCT, -0.15 E-score.
Take AGCGTGGG: the binding signal was -0.125 E-score.
ACGCAGAA: the binding signal amounted to 0.0169 E-score.
In the case of ATGACGGA it was 0.0937 E-score; in that of ACGTGCCA, -0.0746 E-score.
For CAACTGCG the value was -0.0688 E-score; for CACCTCGC, -0.238 E-score; for ATCGGCAA, 0.216 E-score.
For CACAGCGA the value was 0.0147 E-score; for CACGCATG, -0.216 E-score; for AAAGAAAC, -0.0207 E-score.
For the sequence AGCCTCTA, the binding signal is -0.205 E-score.
Regarding ACTGCCGA, the binding signal was -0.00102 E-score.
With AATATCAA, the binding signal came to 0.322 E-score.
In the case of CAAAATGA it was 0.0909 E-score; in that of AGCTGCTG, -0.126 E-score.
For the sequence ATGGGAGC, the binding signal was -0.271 E-score.
For ACATCTGC, the binding signal was -0.0263 E-score.
AGCTGGAC displayed a binding signal of -0.26 E-score.
As to AAGACTAA, the binding signal was -0.00376 E-score.
Sequence ACTCTCGC came in with a binding signal of -0.145 E-score.
Take ATCCAATG: the binding signal was 0.213 E-score.
For the sequence AAACCGCA, the binding signal was -0.0413 E-score.
In the case of ACGTCCGG it was -0.0995 E-score.
Regarding AAATATTC, the binding signal was 0.306 E-score.
For AGGTCTTA the value was -0.197 E-score; for ATCTCGCC, 0.314 E-score.
On to AAATAGGG, for which the binding signal was -0.122 E-score.
In turn, AGCCAAAT had a binding signal of 0.0454 E-score.
In turn, ACTATTCA showed a binding signal of -0.0686 E-score.
With AAATACGT, the binding signal was determined as 0.267 E-score.
In the case of AAGTAATC, the binding signal turned out to be 0.337 E-score.
For AGCGTCAA the value was -0.00194 E-score; for AGTCGTGC, -0.0277 E-score.
For AATTATGC the value was 0.0787 E-score.
For AGAGACCA the value was -0.14 E-score; for CACTATCG, 0.134 E-score; for ATGTCAAT, 0.0149 E-score.
As for AGACACGC, the binding signal is -0.201 E-score.
With AAGAATCG, the binding signal amounted to 0.374 E-score.
The sequence CACTGCTA yielded a binding signal of -0.108 E-score.
For AATACACG, the binding signal stood at 0.0796 E-score.
In the case of AGTCAGAT it was 0.208 E-score; in that of ACAGGTGG, -0.18 E-score.
In the case of AATCATTG it was 0.12 E-score.
For AAGCGTCC the value was -0.299 E-score; for ACCCTCCT, -0.181 E-score.
Consider ATTAGCAA, for which the binding signal turned out to be 0.169 E-score.
For AAGAATCT the value was 0.449 E-score; for AACATTTA, 0.113 E-score.
Turning to CACTGAAG, the binding signal is -0.19 E-score.
In the case of AAGACCGG it was -0.204 E-score; in that of ACATCAGT, -0.0817 E-score; in that of AGCCGATA, 0.197 E-score.
In the case of ATGATCGC it was 0.232 E-score.
Turning to ACCCGTAT, the binding signal worked out at 0.063 E-score.
In the case of ATGCATTC it was 0.0555 E-score; in that of AAGTTATT, 0.155 E-score.
In the case of ATGTGCTC it was -0.0577 E-score; in that of ATTCCCTA, 0.367 E-score.
Sequence AGAGTGCT came in with a binding signal of -0.124 E-score.
For the sequence ATTGGGTG, the binding signal is -0.0727 E-score.
In the case of AACAACTG it was -0.065 E-score; in that of ACTGGGAC, -0.244 E-score; in that of AAGGTTTA, -0.00355 E-score.
In the case of AAGCCAGC it was -0.205 E-score; in that of ATTTCCTC, 0.309 E-score.
For ATTTGGAG the value was 0.0649 E-score; for CAACATAA, 0.063 E-score; for ACGACTCA, 0.0342 E-score.
As for ACGTTCCT, the binding signal was -0.0714 E-score.
As for AGTGTATA, the binding signal is 0.0911 E-score.
In turn, ATACAGTC yielded a binding signal of -0.13 E-score.
For AAGACACG the value was -0.0512 E-score.
In the case of AGGCTCTA it was -0.188 E-score; in that of AAACGCCG, -0.142 E-score.
For ATTAATCC the value was 0.147 E-score.
In the case of ATCCCGAA, the binding signal came out at 0.173 E-score.
For AAGTTGGT the value was -0.0974 E-score; for AATATAAC, 0.178 E-score; for AGGTCACC, -0.38 E-score.
Sequence ATGTTAAG had a binding signal of -0.033 E-score.
For ATTACAAC the value was 0.257 E-score; for ATGCGAGC, -0.147 E-score; for AGCTGCAG, -0.102 E-score.
For AGTGATTA the value was 0.245 E-score.
In the case of AAGGCTAC it was -0.224 E-score; in that of ATTCGCTA, 0.301 E-score; in that of CAAAATAG, 0.192 E-score.
ATTCGTGA had a binding signal of 0.133 E-score.
For ATGCTTAA the value was 0.0953 E-score.
The sequence ATGATATA gave a binding signal of 0.108 E-score.
ATGTTGGA: the binding signal worked out at 0.101 E-score.
For CAAACAAC the value was -0.0175 E-score.
For AACCGGGC the value was -0.258 E-score; for CACATGCA, -0.0308 E-score; for ATGGTTGG, -0.133 E-score.
In the case of ATTGCCCA it was 0.162 E-score.
Regarding AATTGACC, the binding signal is -0.121 E-score.
For the sequence CAAAGATA, the binding signal was found to be 0.225 E-score.
On to AACGCTGT, for which the binding signal is -0.112 E-score.
In the case of AAGAAAAT it was 0.34 E-score; in that of CACATTGC, -0.0627 E-score; in that of CAGAAGAG, -0.13 E-score.
For AGACCCAG the value was -0.276 E-score; for AAATCCTG, 0.422 E-score.
Take ACCGTGCG: the binding signal was -0.0682 E-score.
In the case of AACGGTCT it was -0.158 E-score; in that of CAGACAAC, -0.0963 E-score.
Sequence AGTTACAC displayed a binding signal of -0.0648 E-score.
With AGCGGACG, the binding signal was -0.151 E-score.
In the case of CACAAAAA it was 0.132 E-score.
For ACCGTGCC, the binding signal was -0.125 E-score.
In the case of AAAGTTTG it was 0.104 E-score; in that of ACCCCAGC, -0.125 E-score; in that of AATTAAAC, -0.0201 E-score.
Regarding AGGCGCCA, the binding signal is -0.189 E-score.
Turning to ACGGTAGT, the binding signal was -0.0515 E-score.
In the case of ACGAAAAC it was -0.112 E-score.
For ACGTATGG the value was -0.217 E-score.
AGGAGTGG registered a binding signal of -0.238 E-score.
Regarding AAACCCCC, the binding signal was -0.373 E-score.
AAGTATGC showed a binding signal of 0.036 E-score.
In the case of ATGGCCCC it was -0.206 E-score.
For ATCAGAAG the value was 0.24 E-score.
In the case of ATCCAGGG it was 0.18 E-score.
Sequence ATACCGAC gave a binding signal of 0.0979 E-score.
In the case of AGGAATGG it was -0.0922 E-score; in that of ACGATGGA, 0.0311 E-score; in that of CACCCTTA, -0.153 E-score.
For CAAGTAGG the value was -0.0409 E-score; for ACTATGTG, 0.0279 E-score.
ACACTCTC had a binding signal of -0.105 E-score.
In the case of AGCTCGAG, the binding signal was -0.000709 E-score.
For ATGGGTTC, the binding signal was -0.14 E-score.
Turning to AATGAGAC, the binding signal is -0.183 E-score.
On to ACGGCCTA, for which the binding signal was -0.0874 E-score.
In the case of AGGGCGTG it was -0.254 E-score.
For ACAGTAAC the value was -0.0361 E-score.
In the case of ATCGGTAA it was 0.201 E-score; in that of ACGAGAGT, -0.148 E-score; in that of ATCCCGGG, 0.0515 E-score.
For the sequence CACACCCA, the binding signal is -0.104 E-score.
For AGTGGGGC the value was -0.275 E-score; for ATCTTACA, 0.258 E-score.
In the case of AAGTTTGT it was -0.138 E-score; in that of ATTACGAC, 0.351 E-score; in that of AGCAGCAT, -0.0713 E-score.
As for AAAACACT, the binding signal is -0.0235 E-score.
For AGTATCAA the value was 0.144 E-score.
In the case of ATAAAAAC it was 0.119 E-score; in that of ACGCGACC, -0.145 E-score; in that of AAAAGTGC, -0.111 E-score.
In the case of AACGCAGT it was -0.176 E-score; in that of ATCACAAC, 0.135 E-score; in that of AATATTAG, 0.209 E-score.
Sequence ATACATCC gave a binding signal of 0.0086 E-score.
